According to PubChem BioAssay (Tox21):
“And” between values parts separate entries of the source, which are not always exact repeats. Equal values may be shown once. The inconclusive results got no clear call from the source; some entries with a clear call stand among them for comparison. A potency beside an inconclusive call is a rough fit, not a confirmed value. A structure can be active in one record and inactive in another. The source made the active and inactive calls. Calls follow the shape of the dose curve; as a rule, active = well fitted cell-killing curve with a large enough effect in the repeat runs; inconclusive = weak or mixed curves, or effect the other way; inactive = no such curve, though single readings can be large or run the other way.
Potency is read from the fitted curve at half-maximal effect; tags tell the direction and shape of the fitted curve.

Experiment: qHTS assay for identifying genotoxic compounds that show differential cytotoxicity against isogenic chicken DT40 cell lines with known DNA damage response pathways - Rev3 mutant cell line (AID 743014); also: nearly all actives have a fitted effect of over 55% in size
Conditions: chicken DT40 Rev3-/- viability, CellTiter-Glo, 40 h; series mostly up to 68.4 µM
For `Cc1cc2c(OCC(CNC(C)(C)C)OC(=O)c3ccccc3)cccc2[nH]1` (stereo unspecified), the Potency was inconclusive: 33.5 µM [cytotoxic, partial curve, poor fit]. With `CC(C)(C)c1ccc(C(=O)O)cc1` the Potency was “inactive”. With `Clc1ccc(Nc2nnc(Cc3ccncc3)c3ccccc23)cc1` the Potency was inconclusive: 33.5 µM [cytotoxic, single point]. For `COc1ncnc(NS(=O)(=O)c2ccc(N)cc2)c1OC`, the Potency was “inactive”. With `COC(=O)CS` the Potency was inconclusive: 65.9 µM [cytotoxic, single point]. In the case of `Nc1ncnc2c1ncn2[C@H]1CC[C@@H](CO)O1`, the Potency was inconclusive: 18.8 µM [cytotoxic, partial curve]. With `NNCCc1ccccc1` the Potency was inconclusive: 68.8 µM [cytotoxic, single point]. For `Oc1c(I)cc(I)c2cccnc12`, the Potency was inconclusive: 13.3 µM [cytotoxic, full curve]. For `CCCCCCOC(C)=O`, the Potency was inconclusive: 17.6 µM [cytotoxic, partial curve]. With `COC(=O)CC(C)CCC=C(C)C` (stereo unspecified) the Potency was inconclusive: 68.6 µM [cytotoxic, single point]. In the case of `COC(=O)CCS`, the Potency was “inactive”. For `COc1c(N2C[C@@H]3CCCN[C@@H]3C2)c(F)cc2c(=O)c(C(=O)O)cn(C3CC3)c12`, the Potency was inconclusive: 33.5 µM [cytotoxic, single point] and inconclusive: 33.5 µM [cytotoxic]. In the case of `CN(C(=O)CN(CCO)CC(=O)N(C)C(C)(C)Cc1ccccc1)C(C)(C)Cc1ccccc1`, the Potency was inconclusive: 14.3 µM [cytotoxic, single point]. With `CN(CCOc1ccc(NS(C)(=O)=O)cc1)CCc1ccc(NS(C)(=O)=O)cc1` the Potency was inconclusive: 3.35 µM [cytotoxic, full curve]. In the case of `CC(=O)OC/C=C(/C)CCC=C(C)C`, the Potency was inconclusive: 17.2 µM [cytotoxic, partial curve]. In the case of `CCNc1nc(NC(C)CC)nc(OC)n1` (stereo unspecified), the Potency was inconclusive: 61.1 µM [cytotoxic, partial curve, poor fit]. For `Nc1ccc(N=Nc2ccccc2)c(N)n1`, the Potency was active: 4.22 µM and inconclusive: 68.9 µM [cytotoxic, single point] and inconclusive: 77 µM [cytotoxic, single point]. In the case of `CCOC(=O)C1=C(C)NC(C)=C(C(=O)OC)C1c1cccc(Cl)c1Cl` (stereo unspecified), the Potency was inconclusive: 29.8 µM [cytotoxic, single point]. In the case of `CC/C=C\C/C=C\C/C=C\CCCCCCCC(=O)O`, the Potency was inconclusive: 68 µM [cytotoxic, single point]. In the case of `C=C(C)C(=O)OCC(CC)(COC(=O)C(=C)C)COC(=O)C(=C)C`, the Potency was inconclusive: 22 µM [cytotoxic, full curve] and inconclusive: 37.9 µM [cytotoxic, partial curve]. With `CCCCCCc1ccc(O)cc1O` the Potency was inconclusive: 23.7 µM [cytotoxic, partial curve] and active: 54.6 µM and active: 38.6 µM. For `Nc1ncnc2nc[nH]c12`, the Potency was inconclusive: 11.9 µM [rising, full curve, poor fit]. For `CCn1cc(C(=O)O)c(=O)c2cc(F)c(N3CCNC(C)C3)c(F)c21` (stereo unspecified), the Potency was inconclusive: 33.5 µM [cytotoxic, single point]. For `CC(=O)[C@H]1CC[C@H]2[C@@H]3CC=C4C[C@@H](O)CC[C@]4(C)[C@H]3CC[C@]12C`, the Potency was inconclusive: 0.531 µM [cytotoxic, partial curve, poor fit]. In the case of `C1CN(SSN2CCOCC2)CCO1`, the Potency was active: 42.8 µM and active: 27.3 µM. In the case of `CCCCCCCCCCCCCOS(=O)(=O)O`, the Potency was inconclusive: 68.6 µM [cytotoxic, single point].
